Data reported in PubChem BioAssay (NCI).
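In this assay, cells in 96-well plates receive the compound at five concentrations for 48 hours. Endpoints are linearly interpolated between the surrounding concentrations. GI50: concentration for 50% inhibition of growth. TGI: concentration producing complete growth inhibition.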

These molecules were tested on NCI-H322M lung (assay: NCI tumour cell line growth inhibition, 48 h).

SMILES	TGI	GI50
CC(C)=CCc1c(O)c(CC2=C(O)C(C)=C(O)C(CC=C(C)C)(C(=O)C(C)C)C2=O)c(O)c(C(=O)C(C)C)c1O (centres undefined)	> 34.6 µM	–
CCN(CCCNC(=O)Cc1cc(=O)oc2cc(N(C)C)ccc12)CCNc1ccnc2cc(Cl)ccc12	68.7 µM	18.8 µM
O=C(NC1CCCCC1)NS(=O)(=O)c1ccc(-n2nc3c(c2-c2cccs2)Cc2ccccc2-3)cc1	> 100 µM	37.9 µM
CN(CCO)C1CCN(c2ccc(Nc3ncc4c5ccnc(F)c5n(C5CCCC5)c4n3)nc2)CC1	24.3 µM	6.42 µM
CCCCCCCCNC(=O)C1=C(C)NC(C)=C(C(=O)NCCCCCCCC)C1	> 100 µM	–
CC(=O)OCC1OC(OC2CCCC[Si](c3ccccc3)(c3ccccc3)O2)C(OC(C)=O)C(OC(C)=O)C1OC(C)=O (centres undefined)	> 100 µM	> 100 µM
NC(=O)c1ncn2c1NCC1OC2C(O)C1O (centres undefined)	> 100 µM	–
CC(NC(=O)CNP(=O)(c1ccccc1)c1ccccc1)C(=O)NC(Cc1ccccc1)C(=O)OCc1ccccc1 (centres undefined)	> 100 µM	–
C#CC[N+](CCO)(CCO)CCCCCCCCCCCCCCCCCC	27.9 µM	–
O=[N+]([O-])c1cccc2nc3ccccc3c(NCCO)c12	0.00332 µM	0.000538 µM
CCC(/C=C(C)/C=C/C(=O)c1c(O)c(-c2ccc(O)cc2)c[nH]c1=O)CO (centres undefined)	26.1 µM	11.6 µM
COc1ccc(NS(=O)c2ccc(Cl)cc2)cc1 (centres undefined)	> 100 µM	–
NS(=O)(=O)c1ccc(Nc2ncc(-c3ccccc3)o2)cc1	> 25 µM	> 25 µM
O=C1c2[nH]cc(CN3CCN(CCO)CC3)c2C(=O)c2c1c(O)c1ccccc1c2O	9.14 µM	1.87 µM
Cc1ccc2c(=O)cc(-c3cccc(Cl)c3)[nH]c2n1	> 100 µM	–
COc1ccc(C2CC(c3ccc4ccccc4c3O)=NN2)cc1OC (centres undefined)	> 100 µM	–
